Hit rate of the full screen: of about 350,000 compounds, about 9,900 (2.8%) were called active. The inconclusive results got no clear call from the source; some entries with a clear call stand among them for comparison. Calls come from the whole dose curve; as a rule, active = well fitted activation curve with a large enough effect; inconclusive = small, poorly fitted or top-dose-only effect; inactive = no such curve, though single readings can be large or run the other way. Potencies of inconclusive entries are left out as doubtful fits.
Assay: A quantitative high throughput screen for small molecules that induce DNA re-replication in MCF 10a normal breast cells. Note: nearly all actives have a fitted effect of over 50% in size.
Details: MCF 10A DNA re-replication, Hoechst nuclear intensity, 48 h; series mostly up to 46.1 µM
Potency is the fitted concentration of half-maximal effect; tags give direction and shape of the fitted curve.

| SMILES | Potency |
| --- | --- |
| COc1ccc(S(=O)(=O)n2cccc2)c(OC)c1 | inconclusive [activator, partial curve, poor fit] |
| CCn1c2ccccc2c2c3ncc4cccn4c3ccc21 | inconclusive [activator, partial curve, poor fit] |
| CCCCCCCCC(=O)NC(NC(=S)N1CCOCC1)C(Cl)(Cl)Cl (stereo unspecified) | inactive |
| CCC(C)(C)c1ccc(OCC(=O)N(C)C)c(C(C)(C)CC)c1 | inconclusive [activator, single point] |
| O=C(COC(=O)c1ccc2c(=O)n3c(nc2c1)CCC3)Nc1ccccc1F | inconclusive [activator, single point] |
| CCn1c(/N=C/c2ccccc2NS(=O)(=O)c2ccc(C)cc2)nc2ccccc21 | inconclusive [activator, single point] |
| N=c1n(CC(=O)c2ccc([N+](=O)[O-])cc2)c2ccccc2n1Cc1ccccc1 | inconclusive [activator, single point] |
| COc1ccc(CNC(=O)c2cc(-c3cc(C)cc(C)c3O)n[nH]2)cc1 | inconclusive [activator, single point] |
| Cc1ccc(-c2cc(=O)[nH]c3ccccc23)cc1 | inconclusive [activator, single point] |
| C=CCn1c(-c2cc3c(s2)CCC(CC)C3)n[nH]c1=S (stereo unspecified) | inconclusive [activator, single point] |
| CCOc1cc(/C=C/c2nc3ccccc3c(=O)[nH]2)ccc1O | inconclusive [activator, partial curve, poor fit] |
| CCOC(=O)C(NC(=O)c1ccccc1Cl)(Nc1ccc(C)c(C)c1)C(F)(F)F (stereo unspecified) | inactive |
| COc1ccc(/C=C2\N=C3CCCCCN3C2=O)cc1 | inconclusive [activator, full curve, poor fit] |
| C/C(=N\NC(=O)CC1N=C(Cc2ccccc2)NNC1=O)c1ccc(Cl)cc1Cl (stereo unspecified) | inconclusive [activator, single point] |
| Oc1ccccc1/C=N/Nc1cc(N2CCCC2)nc(N2CCCC2)n1 | active: 18.4 µM |
| O=C1CC(c2ccc(F)cc2)Cc2nc(NCC3CCCO3)ncc21 (stereo unspecified) | inactive |
| Cc1ccc2nc(Cl)c3nnnn3c2c1 | active: 2.59 µM |
| Cn1c(SCC(=O)N2CCN(C(=O)c3ccco3)CC2)nnc1-c1ccc(NS(C)(=O)=O)cc1 | inconclusive [activator, single point] |
| Cc1ccc2nc(SCC(=O)c3c(N)n(C4CC4)c(=O)[nH]c3=O)[nH]c2c1 | inactive |
| COc1ccccc1OCC(O)Cn1c(=N)n(CCN2CCCCC2)c2ccccc21 (stereo unspecified) | inconclusive [activator, single point] |
| O=c1[nH]c(SCc2cccc(F)c2)nc2c1CCCC2 | inactive |

| SMILES | Potency |
| --- | --- |
| COc1ccc(/C=N/Nc2ncc(C(F)(F)F)cc2Cl)cc1OC | inconclusive [activator, single point] |
| O=C(Nc1nnc(-c2cccs2)o1)c1ccc(S(=O)(=O)N2CCOCC2)cc1 | inconclusive [activator, single point] |
| O=C(NC1CCC(=O)N(CCOc2ccccc2)CC1)OCc1ccccc1 (stereo unspecified) | inconclusive [activator, single point] |
| CCCCn1nnnc1SCC(=O)Nc1sc2c(c1C#N)CCCC2 | active: 11.2 µM |
| O=C(COCc1cc(-c2ccc3c(c2)OCO3)on1)N1CCN(c2cccc(Cl)c2)CC1 | inconclusive [activator, single point] |
| Cc1cc(/C=N/Nc2ccc([N+](=O)[O-])cn2)c(C)n1-c1cccc(C(=O)O)c1 | inconclusive [activator, partial curve, poor fit] |
| NC(=O)c1nsc(C(=O)N(CC(=O)NC2CCCCC2)c2ccc(Cl)cc2)c1N | inconclusive [activator, single point] |
| COc1ccccc1N(Cc1ccccc1)S(=O)(=O)c1cccc(C(=O)NC2CC(C)(C)NC(C)(C)C2)c1 | inconclusive [activator, single point] |
| Cc1ccc(C(=O)NC(=S)Nc2cc(C(F)(F)F)ccc2Cl)cc1 | active: 9.2 µM |
| CC(C)CCn1c(Sc2nc3ccccc3o2)nc2c1c(=O)[nH]c(=O)n2C | inconclusive [activator, partial curve, poor fit] |
| CC(C)COc1ccc(C(=O)OCC(=O)NCc2cccs2)cc1 | inconclusive [activator, single point] |
| O=C(CSc1nnc(-c2ccc(Br)o2)n1Cc1ccccc1)c1ccccc1F | inconclusive [activator, single point] |
| O=C(O)c1cccc(Nc2ncnc3c2cnn3-c2ccccc2)c1 | inconclusive [activator, partial curve, poor fit] |
| COC(=O)C1=C(COc2ccccc2)NC(=O)NC1c1ccc2ccccc2c1 (stereo unspecified) | inconclusive [activator, single point] |
| CCS(=O)(=O)N1Cc2ccccc2CC1C(=O)NC(C)C12CC3CC(CC(C3)C1)C2 (stereo unspecified) | inconclusive [activator, single point] |
| CCOCCOC(=O)C(C)Oc1ccc(Oc2ncc(Cl)cc2Cl)cc1 (stereo unspecified) | inconclusive [activator, single point] |
| O=C(CCCOC(=O)c1ccc(O)cc1O)c1ccc(Br)cc1 | inconclusive [activator, single point] |
| Cc1ccccc1-c1nc(CN(Cc2c(C)nn(C)c2C)C2CC2)c(C)o1 | inconclusive [activator, partial curve, poor fit] |
| COc1ccc2c(=O)c3c(=O)n(Cc4ccccc4)c(C(C)C)nc3oc2c1 | inconclusive [activator, partial curve, poor fit] |
| COc1ccc(CNCc2c(O)c(Cl)cc3c(C)c(C)c(=O)oc23)c(OC)c1 | inconclusive [activator, single point] |

Reference: PubChem BioAssay AID624296 (National Center for Advancing Translational Sciences (NCATS), 2012)
